This is one part of the list.

The target of this assay is T1, OsWOX13 (Oryza sativa, UniProt Q5QMM3 1-267).
T1 sequence: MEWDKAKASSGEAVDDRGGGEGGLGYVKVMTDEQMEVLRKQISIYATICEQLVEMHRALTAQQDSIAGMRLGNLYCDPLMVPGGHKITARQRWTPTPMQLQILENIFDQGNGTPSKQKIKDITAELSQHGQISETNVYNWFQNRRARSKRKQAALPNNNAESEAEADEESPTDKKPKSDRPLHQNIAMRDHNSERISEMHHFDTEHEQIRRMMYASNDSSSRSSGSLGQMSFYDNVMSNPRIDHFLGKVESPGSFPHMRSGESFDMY
As to the kind of experiment: protein-binding microarray (RPBM); PBS, 2% BSA, 51.3 ng/ul salmon testes DNA, 50 uM zinc acetate, 200 nM TF, 25 C, 1 h; high values mean tight binding. Conditions: protein: recombinant; tags: N-terminal polyhistidine and DsRed monomer fusion (pET32a); label: CyDye5-dUTP incorporated in the synthesized complementary strand; 3' TTTTT single-stranded linker to array surface; dsDNA, one strand shown. The gist of the method: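 Binding signal is reported as fluorescence intensity per feature (arbitrary units) from an Axon 4000B scanner. Incubation used 200 nM of each Ni–NTA-purified, N-terminally polyhistidine- and DsRed-fused transcription factor from E. coli BL21-CodonPlus on a double-stranded custom Agilent array for 1 h at 25 °C, with 50 µM zinc acetate in the buffer, followed by washing.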
With “CACCAACATTCTATTTTCAACCAATCACAACCCTTTACCACGGAGTCACCTAGTGCAG”, the binding signal is 5180 fluorescence intensity (a.u.).

Regarding “TTTACTTTTAGATTGATAAGAACACATATATAAAAGTTTTCGGAGTCACCTAGTGCAG”, the binding signal is 12200 fluorescence intensity (a.u.).

For the sequence “TAGAATTATTATTTATTTTATTTGTGACTTACTTTATTATCGGAGTCACCTAGTGCAG”, the binding signal was 3160 fluorescence intensity (a.u.).

Take “ATGATACGAGTATTAAAACTAATTAGTAATAAATCCTCTGCGGAGTCACCTAGTGCAG”: the binding signal is 3840 fluorescence intensity (a.u.).

Consider “AACATAACTTAATTTGTATGAATATGTGTGTTATTAATTGCGGAGTCACCTAGTGCAG”, for which the binding signal was 11900 fluorescence intensity (a.u.).

As for “TGCATGTAATTAGAATTAAAGAAAACTAATTAAAGATGGACGGAGTCACCTAGTGCAG”, the binding signal is 16500 fluorescence intensity (a.u.).

As for “ACTTTTAACTGCTAGTCATCAACTCATCAGCAACTATCTACGGAGTCACCTAGTGCAG”, the binding signal was 13500 fluorescence intensity (a.u.).

Turning to “ATAAACTAATAACAAAACAAATTACATATTCCGCCTGTAACGGAGTCACCTAGTGCAG”, the binding signal is 10100 fluorescence intensity (a.u.).

In the case of “TCAAATTTAAATCTTAATCTCATTATCAATTCCTTCGTGTCGGAGTCACCTAGTGCAG”, the binding signal is 11000 fluorescence intensity (a.u.).

With “TTAGGAGTAATTGGATATCATAAACAGGAAATTACTGCAGCGGAGTCACCTAGTGCAG”, the binding signal is 20800 fluorescence intensity (a.u.).

As to “ATCATGGACTAATTAGGCTCAAAAGATTCATCTTGCGATTCGGAGTCACCTAGTGCAG”, the binding signal is 5920 fluorescence intensity (a.u.).

For “CATTACCAATCAATTTTGCTATATATTTATCGATAAATTTCGGAGTCACCTAGTGCAG”, the binding signal was 20700 fluorescence intensity (a.u.).

“CCATCTGATTAGAGATTTGATCCTATACCTTCCTAAACATCGGAGTCACCTAGTGCAG”: the binding signal is 40700 fluorescence intensity (a.u.).

As to “TGATAATAATCATATAATCACTGATGTTACTCATGTGGTACGGAGTCACCTAGTGCAG”, the binding signal is 19800 fluorescence intensity (a.u.).

Take “CTAATTAACATTAAACATTTGTGGAAGGAGGTAATGGTACCGGAGTCACCTAGTGCAG”: the binding signal was 21600 fluorescence intensity (a.u.).

For “TGTAAACTTAAGTTTAAAATTTCAAATTTTGGCTGTGGCTCGGAGTCACCTAGTGCAG”, the binding signal is 5380 fluorescence intensity (a.u.).

For the sequence “ATTAATTAGGTTTAATAAATTCGTCTCGCGGTTTACTAATCGGAGTCACCTAGTGCAG”, the binding signal is 22600 fluorescence intensity (a.u.).

Regarding “ATATAATCCCTGGCTTTGATTTGTTTAGTAGTACCATTTACGGAGTCACCTAGTGCAG”, the binding signal was 4260 fluorescence intensity (a.u.).

“CAAATTGACAAAGCACATTCGTTTCCTCACTCGTGTTTTACGGAGTCACCTAGTGCAG”: the binding signal was 24900 fluorescence intensity (a.u.).

Regarding “CAAATTAATTAATAAGAGAAAACAAACTGTTCGACCCATCCGGAGTCACCTAGTGCAG”, the binding signal is 36200 fluorescence intensity (a.u.).

Consider “CTAAACAGGTAGCTGAGAGGTAGCTGAGAAGATCCAGGCCCGGAGTCACCTAGTGCAG”, for which the binding signal was 9300 fluorescence intensity (a.u.).

Turning to “CAATATAATATAATAGTTAATTTGCTGCTACAGTTGTTACCGGAGTCACCTAGTGCAG”, the binding signal is 10000 fluorescence intensity (a.u.).

On to “GTAATAATTTTGTCATCCACTCCTGTATCTGTACGAGTTTCGGAGTCACCTAGTGCAG”, for which the binding signal is 10300 fluorescence intensity (a.u.).

In the case of “TTCAAACTGATTGTGACGTGTAACCAATTTCATTTGTCACCGGAGTCACCTAGTGCAG”, the binding signal is 27300 fluorescence intensity (a.u.).

As to “CCATCAATTTTCATTTACATCGACAGTAATTCGATTACTACGGAGTCACCTAGTGCAG”, the binding signal was 6400 fluorescence intensity (a.u.).

As for “ATGATGATGATGAGGAGGAGACTCTCTCACCTTCTCACGCCGGAGTCACCTAGTGCAG”, the binding signal is 11100 fluorescence intensity (a.u.).

On to “AATGCTAAAATGATTTACACCGTGAAACGGAGGGAGTACCCGGAGTCACCTAGTGCAG”, for which the binding signal is 5510 fluorescence intensity (a.u.).

Regarding “ATTATTTAGTAAAATTGATAAATATATGATATTATTTAGTCGGAGTCACCTAGTGCAG”, the binding signal was 6560 fluorescence intensity (a.u.).

As to “AAATGCTAATTGCACAGTTTGCATGTAAATTGCGAGACGACGGAGTCACCTAGTGCAG”, the binding signal was 10200 fluorescence intensity (a.u.).

“ATAATCATGATAATGACATGCTAATGATCATTCATGTGAACGGAGTCACCTAGTGCAG”: the binding signal was 17900 fluorescence intensity (a.u.).

Regarding “AATATGATTATCAAAACTAGATAGAGGGAGTATTAGGAAACGGAGTCACCTAGTGCAG”, the binding signal was 19500 fluorescence intensity (a.u.).

Turning to “CATCTAACCAATTAAGCCCACAGAAGCGATTCGGCTCGGCCGGAGTCACCTAGTGCAG”, the binding signal is 4000 fluorescence intensity (a.u.).

For the sequence “TAGTAATTTCACATCAGGTTCATCGAAGCATCGATCTTGTCGGAGTCACCTAGTGCAG”, the binding signal was 3860 fluorescence intensity (a.u.).

As to “CATCAATTTGGTATCCTCACTTTGAATTGTTTTCATTGTCCGGAGTCACCTAGTGCAG”, the binding signal was 4020 fluorescence intensity (a.u.).

For the sequence “TAGTTAAATTTAGAGTAGTTAAAACGACTTATAACCTGGACGGAGTCACCTAGTGCAG”, the binding signal was 3570 fluorescence intensity (a.u.).

Consider “TTATCTATTTATTTATTTATTATTTTATTATTTTGTCTCGCGGAGTCACCTAGTGCAG”, for which the binding signal was 3450 fluorescence intensity (a.u.).

Take “GGAAATTTAACTATTTGCCACTTTTAGGTTTATCAATTATCGGAGTCACCTAGTGCAG”: the binding signal was 4880 fluorescence intensity (a.u.).

Take “CTAGAATTATTAATTCAAGAAATTATAAGGGGTTACATACCGGAGTCACCTAGTGCAG”: the binding signal is 8480 fluorescence intensity (a.u.).

In the case of “CTTATTATAAAGATTTAATTATAACAAATATAATGGTATGCGGAGTCACCTAGTGCAG”, the binding signal was 4800 fluorescence intensity (a.u.).

Take “GGGAGATGGGAGATTGGAGAAGATAGAGGAGAGAACTGTTCGGAGTCACCTAGTGCAG”: the binding signal was 4420 fluorescence intensity (a.u.).

For “AGGGGATTAAATAATTGCAAATCCGAATAATAAAAGAAATCGGAGTCACCTAGTGCAG”, the binding signal is 4330 fluorescence intensity (a.u.).

In the case of “CTCTAAATTTGCAAATTCTACATATGCAGCTGCAGGAAAACGGAGTCACCTAGTGCAG”, the binding signal is 12700 fluorescence intensity (a.u.).

The values are drawn from article PMC7819943, “Rice protein-binding microarrays: a tool to detect cis-acting elements near promoter regions in rice”.
